The list shows a part of the results. These are enrichments in a pooled selection; single values are uncertain.
The substances below were run on SARS-CoV-2 3CLpro (nsp5) (assay: substrate phage enrichment score (protease-eluted vs HEPES control, +1 offset) (ratio); higher = better cleaved substrate). Details: selection round: 4; protease elution time: 15 min.
Method: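 Random heptapeptide substrate phage display (M13 pIII fusion, heptapeptide between an N-terminal biotinylated AviTag GLNDIFEAQKIEWHE and pIII; phages immobilised on streptavidin) eluted by cleavage with 50 nM protease in 20 mM HEPES at 37 °C. Selected phages were NGS sequenced, and the enrichment score is (reads in protease sample + 1)/(reads in HEPES blank-selection control + 1).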

Row | Substance | substrate phage enrichment score
1 | SSVAAHH | 1.84
2 | TWDGLLN | 2.89
3 | ERNVNCS | 342
4 | CSVLQSH | > 194
5 | VNTHGAV | 3.67
6 | YRNRQQK | 2
7 | VGPHIII | 0.941
8 | ETEQNWT | 1.8
9 | DDHWRQS | 0.692
10 | SCLNCRQ | > 33
11 | AMESPSS | > 87
12 | EKQSDFT | 1.44
13 | NPALGTR | > 50
14 | SWWQESS | > 25
15 | FEKGPSK | 11
16 | FCENLKK | 12
17 | VLAEPNC | 0.625
18 | APAAAHH | 1.2
19 | SSSTSLR | 2.73
20 | VWAAPSV | 3.29
21 | IPSDFMM | 1.52
22 | PNQQNEA | 3.5
23 | HHVNQTG | > 52
24 | VLPPSPQ | 3.27

Row | Substance | substrate phage enrichment score
25 | PRVATPT | > 59
26 | RAVQLQG | > 43
27 | PRNEGVP | 1.21
28 | NCSRTEE | 0.35
29 | TPCSLHG | 0.647
30 | SNPPATR | 4.83
31 | TPGTLTP | > 54
32 | PISSETI | 0.211
33 | NWKTGHP | > 24
34 | SQPLRQV | 2.37
35 | SRPIWET | > 22
36 | TPHSYSP | > 40
37 | KDVNVNS | > 58
38 | CYADATR | 5.2
39 | QVANGEP | 1.36
40 | SRKDNSG | 1.47
41 | SEVSTLH | > 52
42 | CNHHHHG | 1.08
43 | NTQKKGE | > 28
44 | VRTEVLE | 0.375
45 | SHGAMLQ | > 32
46 | LKSGGHA | 13.3
47 | SGHTTLQ | > 114
48 | PLMQSKC | 2.15

Row | Substance | substrate phage enrichment score
49 | SCRFRRI | 0.323
50 | KNAEHLS | 1.3
51 | TGSETHS | 4.23
52 | LNITESQ | 1.26
53 | LKDSRVS | > 28
54 | CRPVSAR | 1.55
55 | CSLQCAL | 17.3
56 | TDSTRVK | 4.33
57 | NLAAHHH | 0.421
58 | VNSPPAI | 1
59 | SHVQNTW | 77.5
60 | SPTILQG | 5.75
61 | GPTYAEA | 8.67
62 | RVRVTLQ | > 374
63 | HYPFLQS | 15.7
64 | IGSCVMD | 3.83
65 | CPSTKNR | > 42
66 | LNGPAYC | > 22
67 | THNNSVK | > 49
68 | HPAAHHH | 0.422
69 | SSSQRLT | > 73
70 | GCVNLQA | 397
71 | STTSTTA | 16.3
72 | SSSHNMT | 35.5

Row | Substance | substrate phage enrichment score
73 | ASQGANC | > 31
74 | VVRQGCT | 0.545
75 | GSAAHHH | 0.858
76 | SGLTHPP | > 42
77 | QRTRGPT | 0.516
78 | RPSGYMT | > 27
79 | RCWASAG | 1.73
80 | GETRLRS | > 27
81 | NQAAHHH | 1.38
82 | VDRMSPL | 1.78
83 | YHVMDEC | 0.733
84 | PLCPMQS | > 42
85 | TRCQSEA | 3.09
86 | YPWDIVQ | > 22
87 | PCLSTVN | 0.6
88 | QSSTPPK | 0.643
89 | CLNLPMD | 1.43
90 | GNRSCTT | > 24
91 | TAPSRSG | 5.67
92 | QSAAHHH | 0.94
93 | GAGVHLW | 2.83
94 | YRQPSSR | > 46
95 | WQGPRLQ | 18.5
96 | AIGCTLQ | > 86

Row | Substance | substrate phage enrichment score
97 | SKRTELE | > 21
98 | ADYMGAV | 1
99 | SCTHTKP | 0.227
100 | TPSANRG | 2
101 | CYDMTRQ | > 25
102 | YDCILQS | > 23
103 | QVREEQQ | 0.846
104 | EQGVMRM | > 38
105 | SRGTSVL | 0.125
106 | NSLSPLP | 4.5
107 | VYYGNGC | > 43
108 | VNSEITP | > 28
109 | QGERCLP | > 34
110 | SRFCRGL | > 24
111 | PILPHVM | > 29
112 | TPIATPQ | 5.17
113 | CRPAAHH | 5.25
114 | ISGTVKA | 1.46
115 | QRTREKN | 2.94
116 | HTPQCKQ | > 67
117 | CSAAAHH | 1.05

— the supplement of paper PMC10185492
